Results: US20180015075A1, “METHODS AND COMPOSITIONS FOR TREATMENT OF VENOUS MALFORMATION” (Children's Hospital Medical Center, priority 2016, published 2018)

System: TIE2, c-ABL, AKT, PLCγ1, ERK phosphorylation in HUVEC-TIE2-L914F
Assay: Immunoblotting (Western blot) of treated cells
Assay type: cell-based, human
Conditions: 500 nM Ponatinib for 1 hour

Cc1ccc(C(=O)Nc2ccc(CN3CCN(C)CC3)c(C(F)(F)F)c2)cc1C#Cc1cnc2cccnn12 [Ponatinib, 3-(2-imidazo[1,2-b]pyridazin-3-ylethynyl)-4-methyl-N-[4-[(4-methyl-1-piperazinyl)methyl]-3-(trifluoromethyl)phenyl]-benzamide]
activation of TIE2 downstream effector AKT: reduced activation
